Laboratory results reported in the supplement of paper PMC10126150.
Sequences with one replicate were seen in a single cluster, so their values are uncertain.

Tested on: ATP
Assay: switch fluorescence ratio, 500 uM ATP over buffer (Cy3 cluster intensity, sum of 5 cycles each) (fold (ratio)); higher = stronger signal-on switching upon ATP binding; sequences stand for … in TCGTCGGCAGCGTCAGATGTGTATAAGAGACAGTTTTTTTTTTTTTTTTTTTTTTTTT…TC
Settings: aptamer strand: ATP DNA aptamer (quencher-CACCTGGGGGAGTATTGCGGAGGAAGG + anchor), 100 nM annealed; ATP concentration: 500 uM; one replicate
Method in brief: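 Exposure to 500 uM ATP lasted 15 min at 22 °C before imaging, and a selection-buffer image was taken beforehand, for Cy3-labelled switching-strand clusters on a modified Illumina MiSeq flow-cell annealed to 100 nM quencher-labelled ATP aptamer. Five buffer/ATP cycles were run with NaOH stripping and re-annealing between them. The fluorescence ratio per cluster is summed target-cycle over summed buffer-cycle Cy3 intensity, averaged per switch-domain sequence. Clusters outside 100-1000 RFU were excluded.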

| Sequence | switch fluorescence ratio |
| --- | --- |
| CCGGGGGTAT | 1.01 |
| AGGGATTGGG | 1.03 |
| TGGAGTTACC | 0.973 |
| CAATATGTCA | 0.979 |
| TATTCGAACC | 1.06 |
| GGCGACAGTT | 1 |
| GCTTTATTGG | 1.01 |
| GTACGGACGG | 1.49 |
| ATAAGAATGG | 0.942 |
| ATTATTTCTC | 0.971 |
| GGGGCTAGAC | 0.829 |
| GCCCACATTT | 1 |
| TCGGTCAACA | 0.969 |
| AGACACGCA | 1.21 |
| TGAGCTTTGT | 0.971 |
| TAGTAGCGCT | 0.98 |
| ATCTCATCGT | 0.961 |
| TGGTCGACC | 1.02 |
| TTGACGTCTG | 0.887 |
| CCAGTGACGT | 0.948 |
| GGGGCACTTA | 1.02 |
| TTAGAATCCT | 1.04 |
| GATAGCACAC | 1.48 |
| ATGGGGTCGT | 0.954 |
| TGTAGGGCTG | 1 |

| Sequence | switch fluorescence ratio |
| --- | --- |
| GCAACTTAGT | 0.99 |
| TTGGCCGGTA | 1.02 |
| AATCCCTGTG | 1.04 |
| ATTGTCAGTA | 0.97 |
| CGGTTACATA | 1.1 |
| ACCAGATAAC | 1.04 |
| GCAATTTAA | 1.03 |
| AATGTGAGTG | 1.04 |
| ACCAGGCTCC | 1.35 |
| GGAATTTGAT | 0.971 |
| GGAGCGTCTG | 1.03 |
| GCTTGCCCAG | 1.03 |
| GTATACAGCG | 0.978 |
| CAGTGATGGC | 0.969 |
| GGGAAACACT | 1.02 |
| CCTTCACTTT | 1.37 |
| GAATGTCCCT | 1.02 |
| CTTTTTTACT | 1.05 |
| AGGTTGGAA | 0.94 |
| CCGTGGCTTT | 0.973 |
| TTTTACTGGG | 1.07 |
| TGGTGCTTTA | 1.22 |
| ACATTTTGGA | 0.961 |
| ACATGTTTCG | 0.988 |
| TATCTCGTGC | 1.03 |

| Sequence | switch fluorescence ratio |
| --- | --- |
| TATAGCGGTG | 0.989 |
| TCGTGGTATG | 1 |
| CAGACATAAG | 1 |
| CCCCGCCGCT | 1.64 |
| GAAGTGTGGA | 0.996 |
| CAGTACTAAG | 1.04 |
| AAGGGCGCGA | 1.17 |
| CGTCGAGTAC | 1.11 |
| GAATGCGTGC | 1.05 |
| CAAAACGCCC | 1.13 |
| CCTGGGGCCC | 0.968 |
| GACGATCC | 0.992 |
| TGAGGGCAG | 1 |
| GGTATTGCCT | 1.01 |
| GCTATTATGC | 0.971 |
| CGTTCGGGAT | 1.02 |
| CTCTAGCCAA | 2.46 |
| TATAACTAAG | 0.964 |
| GGTGAAAGGT | 0.974 |
| TTTCGAGCG | 1.02 |
| TTGTTAGTA | 1.02 |
| AAGGGGGCTG | 0.951 |
| CCTGGCAGGC | 1.25 |
| TAGAACGGGA | 0.968 |
| CGCTCATAAT | 1.03 |

| Sequence | switch fluorescence ratio |
| --- | --- |
| CGTCACAGGA | 1 |
| TAATTTCGAG | 1.01 |
| GACACTTGTC | 1.03 |
| TGCATCATAC | 3.07 |
| ATGCGTTGCA | 0.987 |
| CAATGATGCA | 0.972 |
| TTACCCTCCC | 1.28 |
| AAGGATGAAG | 1.04 |
| CCACAAAAAA | 1.03 |
| GTAGCAGCTT | 1.07 |
| AGAGTACACT | 1 |
| TCACAGAATA | 1.01 |
| TAAACAGCTC | 0.961 |
| AAGTGCGGTT | 1.04 |
| GCGAACCCAG | 3.87 |
| CCCGGGCTCC | 1.49 |
| TCAAGCACGG | 1.19 |
| GAATATGGGA | 0.973 |
| GAACTCCTTG | 1.01 |
| ACGAAACCAT | 1.22 |
| ACGTGACAAG | 1.17 |
| CAGATCCAAG | 0.975 |
| TCTATGGAGT | 0.992 |
| CGTCTTTTTT | 0.977 |
| AGAACGGGCG | 0.979 |

| Sequence | switch fluorescence ratio |
| --- | --- |
| GCGTAGATAT | 1.08 |
| TGGACCCTCC | 1.19 |
| CTGGGACCGA | 1.03 |
| GCGCACGTGG | 1.06 |
| TCATTAGTTT | 1.02 |
| AGGGGGATTC | 0.974 |
| AGTTCCGGAG | 2.93 |
| TCAAACTCA | 1.02 |
| GCATGACCGT | 0.972 |
| CCACCATAGT | 1.08 |
| CATACGCAGT | 3.52 |
| CCCCACGAAC | 4.47 |
| TATCTGTACT | 1.06 |
| AGACTGGGCA | 1.01 |
| CCCATTGTGT | 1.11 |
| TGACTGTTAG | 1 |
| CGCGGCCAGG | 1.41 |
| GGTATTCGTT | 0.972 |
| CGGCAGCTTC | 1.33 |
| TCCTTCCCGA | 1.72 |
| GTCAACTTGG | 0.994 |
| GTACGTTGGG | 1.02 |
| ACTGTCATGG | 1.1 |
| TAGAGAAGCG | 1 |
| GACGGAGTTT | 1.04 |

| Sequence | switch fluorescence ratio |
| --- | --- |
| GTCGATGATG | 0.971 |
| CGAGAGTATG | 1.03 |
| GTCAACAAAA | 0.995 |
| CCTCTTTGGG | 0.993 |
| TCTCGGTGGG | 0.976 |
| TAGAGTGATC | 0.998 |
| TACCTAATAA | 1.01 |
| GCCACTGAGA | 1.02 |
| CGAATGCTCA | 1.11 |
| TAACGTACTA | 1.52 |
| ATTTTGGGG | 1.03 |
| CTCTAGTATA | 0.954 |
| CATTGTAAT | 1.01 |
| GGAGGTCCGG | 1.01 |
| AGCACTACAA | 1.11 |
| TGCCTGCAAC | 1.02 |
| TCCGAAGGCA | 2.01 |
| GGTTAGTCTA | 0.981 |
| GAAGTCGTGG | 0.978 |
| ACGCGCTGAC | 1.24 |
| TTGCAGGGCA | 1.01 |
| CTAACCCGTT | 1.02 |
| AGATCAGCGG | 0.992 |
| ATCAATGGTG | 1.07 |
| AGCACATGTG | 1.07 |

| Sequence | switch fluorescence ratio |
| --- | --- |
| ATGGTATTAT | 1.01 |
| GAGCTTCACC | 0.995 |
| TCAGTTCGTG | 1 |
| GAGGTCTTTC | 1.02 |
| GAACGTATTC | 1.08 |
| AGACATGTAG | 0.973 |
| TATTCGTAA | 1.04 |
| CAACGAATG | 0.993 |
| AAGGGTGCCT | 1.04 |
| GAAGAAAGTG | 0.912 |
| AAGGATCGAT | 0.938 |
| AATAGGCGCT | 1.05 |
| CATGTAGATA | 0.957 |
| AGTGCTGTTG | 1.02 |
| AGATAGTGAC | 1 |
| GCGCTCACGA | 1.1 |
| TTACCTACTG | 1.34 |
| TGGGCCATGC | 1.06 |
| TAAGCGGGTG | 0.99 |
| CCGGTATCCC | 1.19 |
| GAATCCCAGG | 4.03 |
| TTAATACCAA | 1.02 |
| AACATCGGTG | 0.993 |
| GAGGTGAGCT | 1.01 |
| CTCAATTGCT | 1.02 |

| Sequence | switch fluorescence ratio |
| --- | --- |
| AAGGTGGTCC | 0.971 |
| CCAAGACGTC | 0.969 |
| TCATGAGAAA | 1.03 |
| GTGATCCTGG | 1.04 |
| CCGGGAAAAC | 1.06 |
| CGTCAGGTCA | 0.979 |
| CAGATTAGAT | 0.989 |
| ACTGCGGGCT | 1.02 |
| AGTCACTTAA | 1.04 |
| ACTTCTTTCA | 0.968 |
| GTCCATATTA | 0.999 |
| GAAGTAAATT | 0.986 |
| AGGGAACGC | 1 |
| TCGTGAAACA | 0.995 |
| GGCGACGCGT | 1.09 |
| ATCAAATCGT | 0.974 |
| CAATGAGCCA | 1.01 |
| GCCGTAATAC | 2.22 |
| CTCTCTGAGC | 1.13 |
| GCCTTAGTGC | 1.09 |
| CTTCTGATT | 1.04 |
| TAGGCGCTGG | 0.99 |
| GCCACAACTG | 1.03 |
| TGTCGCCAGG | 1.01 |
| AATATACTTG | 1.04 |
